Structures can show the parent of a compound that is named as a salt. The list shows a part of the results. Many values rest on one well or one pass, so single values are uncertain.
What was measured:
[1] = system: H9 teratoma-derived LAM model cells, TSC2-/-; test: percent SyTOX+ dead cells; higher = more cytotoxic; conditions: 5 µM, treatment time 72 h, culture: 3D hyaluronic acid hydrogel
[2] = system: H9 teratoma-derived LAM model cells, WT; test: percent SyTOX+ dead cells; higher = more cytotoxic; conditions: 5 µM, treatment time 72 h, culture: 3D hyaluronic acid hydrogel, genotype: WT
[3] = system: H9 teratoma-derived LAM model cells, TSC2-/-; test: percent of cells invaded past median invasion distance of vehicle control; LAM is lymphangioleiomyomatosis; the cells come from teratomas of the human stem cell line H9; higher = more invasion; extreme values may be limits of the assay; conditions: 5 µM, treatment time 72 h, culture: 3D hyaluronic acid hydrogel
[4] = system: H9 teratoma-derived LAM model cells, WT; test: as above; conditions: 5 µM, treatment time 72 h, culture: 3D hyaluronic acid hydrogel, genotype: WT
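For percent SyTOX+ dead cells in this document: cells seeded atop a hyaluronic acid gel crosslinked via MMP-cleavable peptides, containing vitronectin peptides and methylcellulose, imaged live by high-content microscopy with automated analysis, one technical replicate per compound.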
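For percent of cells invaded past median invasion distance of vehicle control in this document: live cells imaged by high content microscopy and scored with in-house automated image analysis, one technical replicate per compound in each genotype and rapamycin condition.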

| Compound | percent SyTOX+ dead cells ([1]; rapamycin 0 nM) [%] | percent SyTOX+ dead cells ([1]; rapamycin 20 nM) [%] | percent SyTOX+ dead cells ([2]; rapamycin 0 nM) [%] | percent SyTOX+ dead cells ([2]; rapamycin 20 nM) [%] | percent ([3]; rapamycin 0 nM) [%] | percent ([3]; rapamycin 20 nM) [%] | percent ([4]; rapamycin 0 nM) [%] | percent ([4]; rapamycin 20 nM) [%] |
| --- | --- | --- | --- | --- | --- | --- | --- | --- |
| Cc1[nH]c(/C=C2\C(=O)Nc3cc(-c4ccccc4)ccc32)c(C)c1CCC(=O)O | 89.3 | 76.1 | 90.9 | 75.9 | 15.4 | 10.6 | 4.57 | 6.28 |
| Cc1csc(-c2nnc(Nc3ccc(Oc4ncccc4-c4ccnc(N)n4)cc3)c3ccccc23)c1 | 15 | 5.73 | 13 | 9.63 | 39.9 | 82.4 | 38.4 | 63 |
| Nc1nc(Nc2ccc(S(N)(=O)=O)cc2)nn1C(=S)Nc1c(F)cccc1F [Cdk1/2 Inhibitor III] | 38.7 | 32.4 | 22.7 | 39.2 | 0.67 | 10.8 | 0 | 0.42 |
| Cc1nc2ccc(NC(=O)Nc3ccnc4cccnc34)cc2o1 | 13.4 | 13.4 | 6.29 | 9.06 | 36.6 | 25.6 | 49.1 | 22.6 |
| O=C(O)C(=O)O.[NH-]C1CCCCC1[NH-].[Pt+2] (stereo not drawn) [Oxaliplatin, Eloxatin] | 11.4 | 8.88 | 13 | 7.55 | 53.1 | 29 | 20 | 18.9 |
| O=C(NOCC1CC1)c1ccc(F)c(F)c1Nc1ccc(I)cc1Cl | 8.88 | 4.45 | 4.87 | 5.08 | 33.6 | 28.4 | 29.9 | 24.4 |
| COc1ccc(C2=N[C@@H](c3ccc(Cl)cc3)[C@@H](c3ccc(Cl)cc3)N2C(=O)N2CCNC(=O)C2)c(OC(C)C)c1 [Nutlin-3] | 12.6 | 14.8 | 13.8 | 12.4 | 83.9 | 54.4 | 76.7 | 81.2 |
| CCCCc1nc2cc(/C=C/C(=O)NO)ccc2n1CCN(CC)CC [SB939, SB-939, Pracinostat] | 18.5 | 17.1 | 22.6 | 3.9 | 11 | 6.45 | 0.75 | 7.14 |
| CS(=O)(=O)CCNCc1ccc(-c2ccc3ncnc(Nc4ccc(OCc5cccc(F)c5)c(Cl)c4)c3c2)o1 | 11.6 | 17 | 11.1 | 14.1 | 39.5 | 17.4 | 22.9 | 15.6 |
| Nc1ncnc2c1c(I)cn2[C@@H]1O[C@H](CO)[C@@H](O)[C@H]1O [5-Iodotubercidin] | 39.1 | 18.1 | 54.8 | 29.2 | 4.65 | 12.6 | 3.92 | 13.6 |
| COc1cc(CCc2cc(NC(=O)c3ccc(N4CC(C)NC(C)C4)cc3)n[nH]2)cc(OC)c1 (stereo not drawn) | 58.3 | 52.7 | 83 | 81.8 | 0 | 0.41 | 0 | 0 |
| COc1cc(F)c(C(C)C)cc1-c1ccc(C(F)(F)F)cc1CN1C(=O)O[C@H](c2cc(C(F)(F)F)cc(C(F)(F)F)c2)[C@@H]1C [Anacetrapib, MK-0859] | 12.7 | 7.75 | 16.7 | 19.7 | 62.6 | 56.8 | 57.4 | 43.3 |
| Cc1nnc(C(=O)NC(C)(C)c2nc(C(=O)NCc3ccc(F)cc3)c(O)c(=O)n2C)o1 [Raltegravir, MK-0518, Isentress] | 11.2 | 9.42 | 12.5 | 2.48 | 68.6 | 25.4 | 59.7 | 37.1 |
| CSc1cccc(Nc2ncc3cc(-c4c(Cl)cccc4Cl)c(=O)n(C)c3n2)c1 | 69.8 | 78.9 | 94.7 | 86.4 | 3.14 | 1.71 | 0 | 0 |
| O=C(NOC[C@H](O)CO)c1ccc(F)c(F)c1Nc1ccc(I)cc1F | 31.5 | 31.5 | 38.3 | 31.8 | 37.3 | 19.6 | 36.1 | 21.2 |
| CCc1cncnc1N1CCN(Cc2nc3ccc(C(F)(F)F)cc3[nH]2)CC1 | 0.45 | 2.68 | 6.03 | 10.5 | 52 | 52.2 | 60.1 | 21.2 |
| C=CC(=O)Nc1cccc(Oc2nc(Nc3ccc(N4CCN(C)CC4)cc3OC)ncc2Cl)c1 | 54.6 | 54.5 | 44.9 | 41.3 | 13.7 | 52.6 | 22.6 | 15.4 |
| O=C(c1ccc(/C=C/c2n[nH]c3ccccc23)cc1)N1CCNCC1 | 10.1 | 15.7 | 30.1 | 24.4 | 71.9 | 12.9 | 7.53 | 4.44 |
| Cc1cc(Nc2cc(C)c(C#N)c(NC(C)CCCC(C)(C)O)n2)n[nH]1 (stereo not drawn) [TC-A 2317 hydrochloride] | 34.9 | 44.9 | 69.9 | 54.9 | 3.97 | 6.52 | 0.68 | 2.23 |
| Ic1cccc(CSc2nnc(-c3ccncc3)o2)c1 [2-Thio(3-iodobenzyl)-5-(1-pyridyl)-[1,3,4]-oxadiazole] | 11.2 | 12.4 | 6.61 | 5.16 | 18.4 | 52.2 | 44.2 | 15.5 |
| O=C(/C=C/C#Cc1ccc(NS(=O)(=O)c2ccccc2)cc1)NO [Oxamflatin; 107-0130] | 9.06 | 9.56 | 10.5 | 11.4 | 53.9 | 40.8 | 51.5 | 49.7 |
| O=C(NOCC(O)CO)c1cc(Br)c(F)c(F)c1Nc1ccc(I)cc1F (stereo not drawn) | 26.3 | 12.2 | 42 | 25.6 | 69.1 | 66.2 | 59.6 | 20.7 |
| Nc1cccc2c(=O)[nH]ccc12 [5-AIQ hydrochloride] | 11.1 | 11.4 | 7.89 | 8.24 | 42 | 45.3 | 47.3 | 54.3 |

| Compound | percent SyTOX+ dead cells ([1]; rapamycin 0 nM) [%] | percent SyTOX+ dead cells ([1]; rapamycin 20 nM) [%] | percent SyTOX+ dead cells ([2]; rapamycin 0 nM) [%] | percent SyTOX+ dead cells ([2]; rapamycin 20 nM) [%] | percent ([3]; rapamycin 0 nM) [%] | percent ([3]; rapamycin 20 nM) [%] | percent ([4]; rapamycin 0 nM) [%] | percent ([4]; rapamycin 20 nM) [%] |
| --- | --- | --- | --- | --- | --- | --- | --- | --- |
| N#CCc1ccc(Nc2nc(Nc3cc(C4CCC4)[nH]n3)c3ccccc3n2)cc1 | 43.9 | 34.5 | 56.3 | 52.8 | 0.65 | 21.8 | 0 | 0 |
| CCN(CC)CCNC(=O)c1ccc2nc(-c3ccccc3)c(-c3ccc(CN4CCC(n5c(=O)[nH]c6ccccc65)CC4)cc3)nc2c1 [Merck-22-6] | 23 | 8.07 | 15.8 | 13.2 | 76.6 | 82 | 66.5 | 52.5 |
| Cc1cc(N2CCOCC2)cc2[nH]c(-c3c(NC[C@@H](O)c4cccc(Cl)c4)cc[nH]c3=O)nc12 | 27 | 14.5 | 38.6 | 29.5 | 21.9 | 37.6 | 24 | 46.1 |
| Nc1ncnc2c1c(-c1ccc(Oc3ccccc3)cc1)cn2C1CCCC1 | 49.3 | 22.5 | 61.9 | 61.4 | 4.11 | 6.2 | 0 | 0 |
| CS(=O)(=O)N1CCN(Cc2cc3nc(-c4cccc5[nH]ncc45)nc(N4CCOCC4)c3s2)CC1 | 38.8 | 37.3 | 74.7 | 69.3 | 10.5 | 8.29 | 0 | 0 |
| C=CC(=O)Nc1cccc(Oc2nc(Nc3ccc(N4CCN(C)CC4)cc3)ncc2Cl)c1 | 46.3 | 36.8 | 63.4 | 59.9 | 38 | 0.58 | 0.3 | 0 |
| C[C@@H](NC(=O)/C(C#N)=C/c1ccc(O)c(O)c1)c1ccccc1 [Tyrphostin B44, (-) enantiomer] | 17.8 | 18.6 | 13.6 | 15.3 | 15.3 | 6.91 | 48.1 | 25.6 |
| Nc1ncnc(Nc2ccc(OCc3ccccc3)c(Cl)c2)c1/C=N/OCCN1CCOCC1 | 10.1 | 19.9 | 12.7 | 18.4 | 20.2 | 14.3 | 26.8 | 5.6 |
| CCS(=O)(=O)Nc1ccc2c(c1)/C(=C(/Nc1ccc(CN3CCCCC3)cc1)c1ccccc1)C(=O)N2 [Hesperadin] | 16.7 | 29.8 | 70.8 | 48 | 29.2 | 3.55 | 0.4 | 0 |
| O=C(Nc1ccccc1-c1cn2c(CN3CC[C@@H](O)C3)csc2n1)c1ccc2ccccc2c1 | 7.89 | 4.76 | 17.2 | 6.11 | 63.2 | 57.9 | 50 | 25.3 |
| COc1cc(Nc2c(C#N)cnc3cc(OCCCN4CCN(C)CC4)c(OC)cc23)c(Cl)cc1Cl [Bosutinib, SKI-606, Bosulif] | 35.7 | 33.9 | 39.8 | 27.6 | 1.43 | 3.23 | 0 | 0 |
| OCc1ccc(-c2ccc(-c3ccc(CO)s3)o2)s1 | 15.3 | 15.5 | 27.2 | 15.5 | 91.9 | 70.4 | 37.8 | 24.2 |
| CC(C)(C)OC(=O)Nc1ccc(-c2cc(C(=O)NCCCCCCC(=O)NO)no2)cc1 | 9.51 | 14.5 | 8.93 | 11.3 | 44.6 | 40.7 | 42.9 | 30.8 |
| O=C(NN=Cc1c(O)ccc2ccccc12)c1ccncc1 | 7.14 | 16.3 | 7.76 | 11.4 | 55.8 | 24 | 9.13 | 7.74 |
| NC(=O)c1ccc2[nH]ccc2c1 | 4.78 | 5.33 | 17.9 | 18.2 | 54.5 | 34.3 | 39.6 | 37.1 |
| Cc1nn(C)c2nc(NNC(=O)Nc3cc(Cl)nc(Cl)c3)cc(C(C)C)c12 | 7.38 | 8.94 | 9.09 | 23.4 | 65.8 | 41.1 | 54.3 | 70.7 |
| CNC(=O)c1nn(C)c2c1C(C)(C)Cc1cnc(Nc3ccc(N4CCN(C)CC4)cc3)nc1-2 | 67.6 | 38.7 | 82.1 | 64.3 | 0 | 0 | 0 | 0 |
| Clc1ccc(C(c2ccc(Cl)cc2)n2cc[n+](CC(OCc3ccc(Cl)cc3Cl)c3ccc(Cl)cc3Cl)c2)cc1 (stereo not drawn) | 47.4 | 20.9 | 42.3 | 26.7 | 34.6 | 7.69 | 1.92 | 0 |
| C=CC(=O)Nc1cc2c(Nc3ccc(F)c(Cl)c3)ncnc2cc1C#CC(C)(C)N1CCN(C)CC1 | 73 | 71.3 | 77 | 80 | 6.5 | 10.6 | 0 | 0.43 |
| C=Cc1cc(O)cc2nc(-c3ccc(O)c(F)c3)oc12 | 6.22 | 14.3 | 9.97 | 7.02 | 59.1 | 29 | 19.9 | 14.5 |
| CC(C)[C@H](CO)Nc1nc(Nc2cccc(Cl)c2)c2ncn(C(C)C)c2n1 [Purvalanol A, NG 60] | 6.06 | 27.2 | 68.3 | 45 | 7.58 | 38 | 0 | 0 |
| Nc1ncnc2c1c(-c1cccc(OCc3ccccc3)c1)cn2C1CC(CN2CCC2)C1 (stereo not drawn) | 26.7 | 29.7 | 36.8 | 36.9 | 1.78 | 2.29 | 9.54 | 9.5 |
| NC(=O)Nc1sc(-c2ccc(F)cc2)cc1C(N)=O | 5.93 | 20 | 43.1 | 22.3 | 22.9 | 23.6 | 0 | 6.25 |
